# Some of the results follow. The data describe in vitro nicking of single-stranded DNA by Rep domains for 1 h at 37 °C with 3 µM enzyme; only the middle of the 90-letter strands is printed. Uncut reads are compared with the no-enzyme pool on a log2 scale; more negative means more cut, near 0 not cut, and no call is made. Reads are scaled to the total; where an enzyme cuts many sequences, the uncut ones exceed 0.
# Columns and labels:
# Assay in all cases: uncleaved DNA left, log2 of reads against the no-enzyme library (log2 ratio); higher = less cleavage (more negative = more Rep cleavage of the k-mer); sequences stand for … in CTCGTCCG…ACCGGAGA
# [1] = tested on: T1, Rep nickase domain of Muscovy duck circovirus
# T1 sequence (Rep 1-111, printed without the tag): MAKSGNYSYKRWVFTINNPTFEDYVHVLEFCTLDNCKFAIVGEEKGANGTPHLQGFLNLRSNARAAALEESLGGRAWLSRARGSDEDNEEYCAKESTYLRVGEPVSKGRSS
# Procedure: (§1)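 A pool of 90-nt single-stranded DNAs with seven random bases just before the constant AC of the nick site (name = the seven bases) was cut by 3 µM recombinant His6-SUMO-tagged Rep nickase domain (300 nM DNA, 50 mM HEPES pH 8.0, 50 mM NaCl, 1 mM MnCl2, 1 h, 37 °C, three replicates). Uncut DNA was amplified and sequenced.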
# [2] = tested on: T2, Rep nickase domain of banana bunchy top virus
# T2 sequence (Rep 1-94, printed without the tag): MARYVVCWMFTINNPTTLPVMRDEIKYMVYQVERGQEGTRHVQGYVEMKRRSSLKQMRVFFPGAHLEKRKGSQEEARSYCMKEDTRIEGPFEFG
# Procedure: as §1
# [3] = tested on: T3, Rep nickase domain of cabbage leaf curl virus
# T3 sequence (Rep 1-116, printed without the tag): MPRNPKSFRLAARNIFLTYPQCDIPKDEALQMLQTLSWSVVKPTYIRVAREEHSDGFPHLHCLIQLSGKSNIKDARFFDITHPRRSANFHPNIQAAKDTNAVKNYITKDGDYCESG
# Procedure: as §1
# [4] = tested on: T4, Rep nickase domain of chickpea chlorotic dwarf virus
# T4 sequence (Rep 1-124, printed without the tag): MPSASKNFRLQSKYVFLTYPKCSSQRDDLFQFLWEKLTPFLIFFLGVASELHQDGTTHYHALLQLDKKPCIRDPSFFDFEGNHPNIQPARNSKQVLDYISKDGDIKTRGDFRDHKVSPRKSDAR
# Procedure: as §1
# [5] = tested on: T5, Rep nickase domain of faba bean necrotic yellows virus
# T5 sequence (Rep 1-98, printed without the tag): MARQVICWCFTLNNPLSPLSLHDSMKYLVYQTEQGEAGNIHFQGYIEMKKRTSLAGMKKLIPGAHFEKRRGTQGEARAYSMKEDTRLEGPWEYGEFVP
# Procedure: as §1
# [6] = tested on: T6, Rep nickase domain of maize striate mosaic virus
# T6 sequence (Rep 1-117, printed without the tag): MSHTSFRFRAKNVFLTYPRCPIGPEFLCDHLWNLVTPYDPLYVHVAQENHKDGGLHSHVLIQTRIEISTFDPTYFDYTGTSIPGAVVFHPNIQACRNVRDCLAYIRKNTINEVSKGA
# Procedure: as §1
# [7] = tested on: T7, Rep nickase domain of porcine circovirus 2
# T7 sequence (Rep 2-116, printed without the tag): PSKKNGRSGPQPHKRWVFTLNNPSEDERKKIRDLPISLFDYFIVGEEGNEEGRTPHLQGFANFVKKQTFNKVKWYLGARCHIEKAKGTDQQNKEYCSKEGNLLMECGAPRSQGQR
# Procedure: as §1
# [8] = tested on: T8, Rep nickase domain of tomato yellow leaf curl virus
# T8 sequence (Rep 1-136, printed without the tag): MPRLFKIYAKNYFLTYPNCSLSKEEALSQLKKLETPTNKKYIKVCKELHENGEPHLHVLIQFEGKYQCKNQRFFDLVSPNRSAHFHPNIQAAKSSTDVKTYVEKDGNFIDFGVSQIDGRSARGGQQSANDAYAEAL
# Procedure: as §1
# [9] = tested on: T9, Rep nickase domain of wheat dwarf virus
# T9 sequence (Rep 1-137, printed without the tag): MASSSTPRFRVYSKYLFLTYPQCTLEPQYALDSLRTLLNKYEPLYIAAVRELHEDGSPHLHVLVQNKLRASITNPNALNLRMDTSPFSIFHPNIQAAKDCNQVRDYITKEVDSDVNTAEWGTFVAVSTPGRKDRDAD
# Procedure: as §1
sequence,measurement,setting,value
TGCCCGG,uncleaved DNA left (log2),[1],0.0357
same,uncleaved DNA left (log2),[2],0.0331
same,uncleaved DNA left (log2),[3],0.406
same,uncleaved DNA left (log2),[4],1.24
same,uncleaved DNA left (log2),[5],0.0289
same,uncleaved DNA left (log2),[6],1.64
same,uncleaved DNA left (log2),[7],0.0668
same,uncleaved DNA left (log2),[8],-0.0921
same,uncleaved DNA left (log2),[9],0.0403
GAAGCAT,uncleaved DNA left (log2),[1],-0.0623
same,uncleaved DNA left (log2),[2],0.103
same,uncleaved DNA left (log2),[3],0.58
same,uncleaved DNA left (log2),[4],1.34
same,uncleaved DNA left (log2),[5],-0.0795
same,uncleaved DNA left (log2),[6],1.77
same,uncleaved DNA left (log2),[7],0.0684
same,uncleaved DNA left (log2),[8],-0.0174
same,uncleaved DNA left (log2),[9],0.0136
ACACCCC,uncleaved DNA left (log2),[1],-0.0789
same,uncleaved DNA left (log2),[2],-0.142
same,uncleaved DNA left (log2),[3],-0.103
same,uncleaved DNA left (log2),[4],-0.0347
same,uncleaved DNA left (log2),[5],-0.00473
same,uncleaved DNA left (log2),[6],-0.178
same,uncleaved DNA left (log2),[7],-0.211
same,uncleaved DNA left (log2),[8],-0.271
same,uncleaved DNA left (log2),[9],-0.0658
GCGGAGG,uncleaved DNA left (log2),[1],0.0983
same,uncleaved DNA left (log2),[2],0.13
same,uncleaved DNA left (log2),[3],0.259
same,uncleaved DNA left (log2),[4],0.818
same,uncleaved DNA left (log2),[5],0.0749
same,uncleaved DNA left (log2),[6],1.02
same,uncleaved DNA left (log2),[7],0.0827
same,uncleaved DNA left (log2),[8],-0.102
same,uncleaved DNA left (log2),[9],-0.112
CAATTGG,uncleaved DNA left (log2),[1],0.0452
same,uncleaved DNA left (log2),[2],-0.0425
same,uncleaved DNA left (log2),[3],-0.866
same,uncleaved DNA left (log2),[4],-0.652
same,uncleaved DNA left (log2),[5],0.0558
same,uncleaved DNA left (log2),[6],-1.29
same,uncleaved DNA left (log2),[7],0.149
same,uncleaved DNA left (log2),[8],0.158
same,uncleaved DNA left (log2),[9],-0.0288
AATTTCT,uncleaved DNA left (log2),[1],-4.03
same,uncleaved DNA left (log2),[2],-3.57
same,uncleaved DNA left (log2),[3],-1.15
same,uncleaved DNA left (log2),[4],-3.14
same,uncleaved DNA left (log2),[5],-0.177
same,uncleaved DNA left (log2),[6],-1
same,uncleaved DNA left (log2),[7],-4.53
same,uncleaved DNA left (log2),[8],0.0588
same,uncleaved DNA left (log2),[9],-0.341
ATGACCG,uncleaved DNA left (log2),[1],0.01
same,uncleaved DNA left (log2),[2],-0.0344
same,uncleaved DNA left (log2),[3],-0.145
same,uncleaved DNA left (log2),[4],0.0494
same,uncleaved DNA left (log2),[5],-0.0497
same,uncleaved DNA left (log2),[6],-0.385
same,uncleaved DNA left (log2),[7],0.123
same,uncleaved DNA left (log2),[8],-0.144
same,uncleaved DNA left (log2),[9],-0.00991
GACTCTG,uncleaved DNA left (log2),[1],0.0978
same,uncleaved DNA left (log2),[2],-0.0674
same,uncleaved DNA left (log2),[3],0.0506
same,uncleaved DNA left (log2),[4],0.424
same,uncleaved DNA left (log2),[5],-0.029
same,uncleaved DNA left (log2),[6],0.679
same,uncleaved DNA left (log2),[7],-0.0923
same,uncleaved DNA left (log2),[8],-0.00128
same,uncleaved DNA left (log2),[9],-0.0225
GAAAGCA,uncleaved DNA left (log2),[1],-0.0044
same,uncleaved DNA left (log2),[2],-0.0265
same,uncleaved DNA left (log2),[3],-0.0736
same,uncleaved DNA left (log2),[4],-0.737
same,uncleaved DNA left (log2),[5],-0.0387
same,uncleaved DNA left (log2),[6],-0.374
same,uncleaved DNA left (log2),[7],-0.104
same,uncleaved DNA left (log2),[8],-0.0375
same,uncleaved DNA left (log2),[9],-0.0046
GTAAGCA,uncleaved DNA left (log2),[1],-0.0126
same,uncleaved DNA left (log2),[2],0.0579
same,uncleaved DNA left (log2),[3],0.114
same,uncleaved DNA left (log2),[4],0.0192
same,uncleaved DNA left (log2),[5],-0.00386
same,uncleaved DNA left (log2),[6],0.451
same,uncleaved DNA left (log2),[7],0.0328
same,uncleaved DNA left (log2),[8],0.105
same,uncleaved DNA left (log2),[9],0.00296
TACCTCA,uncleaved DNA left (log2),[1],-0.127
same,uncleaved DNA left (log2),[2],-0.0371
same,uncleaved DNA left (log2),[3],-0.223
same,uncleaved DNA left (log2),[4],-2.38
same,uncleaved DNA left (log2),[5],-0.174
same,uncleaved DNA left (log2),[6],-0.259
same,uncleaved DNA left (log2),[7],-0.742
same,uncleaved DNA left (log2),[8],0.00587
same,uncleaved DNA left (log2),[9],0.00587
GATCATA,uncleaved DNA left (log2),[1],0.0987
same,uncleaved DNA left (log2),[2],0.0615
same,uncleaved DNA left (log2),[3],0.284
same,uncleaved DNA left (log2),[4],-0.0311
same,uncleaved DNA left (log2),[5],-0.00881
same,uncleaved DNA left (log2),[6],1.28
same,uncleaved DNA left (log2),[7],0.1
same,uncleaved DNA left (log2),[8],0.0239
same,uncleaved DNA left (log2),[9],0.249
GCGCCTC,uncleaved DNA left (log2),[1],-0.0382
same,uncleaved DNA left (log2),[2],-0.000259
same,uncleaved DNA left (log2),[3],0.071
same,uncleaved DNA left (log2),[4],0.358
same,uncleaved DNA left (log2),[5],-0.0621
same,uncleaved DNA left (log2),[6],0.849
same,uncleaved DNA left (log2),[7],-0.0789
same,uncleaved DNA left (log2),[8],-0.0188
same,uncleaved DNA left (log2),[9],0.00647
AACCTGT,uncleaved DNA left (log2),[1],-0.044
same,uncleaved DNA left (log2),[2],-0.0272
same,uncleaved DNA left (log2),[3],0.0362
same,uncleaved DNA left (log2),[4],-0.412
same,uncleaved DNA left (log2),[5],0.0203
same,uncleaved DNA left (log2),[6],0.406
same,uncleaved DNA left (log2),[7],-0.275
same,uncleaved DNA left (log2),[8],-0.114
same,uncleaved DNA left (log2),[9],-0.142
CAATATC,uncleaved DNA left (log2),[1],0.0778
same,uncleaved DNA left (log2),[2],0.0253
same,uncleaved DNA left (log2),[3],-3.35
same,uncleaved DNA left (log2),[4],-3.02
same,uncleaved DNA left (log2),[5],-0.082
same,uncleaved DNA left (log2),[6],-2.81
same,uncleaved DNA left (log2),[7],-0.408
same,uncleaved DNA left (log2),[8],-0.0574
same,uncleaved DNA left (log2),[9],-1.97
